# Source: PubChem BioAssay (Tox21)
# Where “and” joins values, the source holds several entries; their conditions need not be identical. Identical values can stand only once. This list was built around the results that the source calls inconclusive (neither active nor inactive); the mix of calls is not that of the screen. For some assays here: Potencies beside an inconclusive call are fits to weak or partial responses and may not hold up. More than one record can exist for a structure, and the calls need not agree. Calls of active or inactive are those of the source. Unless noted, the call rests on the fitted dose curve; in most records, active means well fitted curve in the direction sought with a large enough effect in the repeat runs; inconclusive means weak or mixed curves; inactive means no such curve, though single readings can be large; an effect the other way counts as inactive or inconclusive.
# Legend:
# [1] = biological target: Glucocorticoid receptor (Homo sapiens) (UniProt P04150); test: qHTS assay to identify small molecule antagonists of the glucocorticoid receptor (GR) signaling pathway (AID 720692; active means well fitted inhibition curve with a large enough effect in the signal ratio in the repeat runs, not every such curve was filed as active; inconclusive means weak or mixed curves, or effect the other way; inactive means no such curve, though single readings can be large or run the other way; the % refers to the signal ratio; further: potency means the concentration at half of the fitted maximal effect); details: GR-bla HeLa, beta-lactamase FRET ratio, dexamethasone-stimulated, 18 h; activity change, negative = inhibition: at 58.5 µM (top of the series) unless noted
# In short: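 Fluorescence from cleaved LiveBLAzer B/G FRET substrate reports GRE-driven beta-lactamase in HeLa cells; compounds are tested against 5 nM dexamethasone (final) over 18 h at 37 C, substrate incubation 2 h at room temperature.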
# [2] = qHTS assay for identifying genotoxic compounds that show differential cytotoxicity against isogenic chicken DT40 cell lines with known DNA damage response pathways - Rad54/Ku70 mutant cell line (AID 743015); details: DT40 Rad54/Ku70 mutant viability, CellTiter-Glo, 40 h; activity change, negative = cytotoxicity: at 66.8 µM (top of the series); further: nearly all actives have a fitted effect of over 60% in size; further: potency means the concentration at half of the fitted maximal effect
# [3] = qHTS assay for identifying genotoxic compounds that show differential cytotoxicity against isogenic chicken DT40 cell lines with known DNA damage response pathways - Rev3 mutant cell line (AID 743014); details: chicken DT40 Rev3-/- viability, CellTiter-Glo, 40 h; activity, negative = cytotoxicity: at 68.4 µM (top of the series) unless noted; further: nearly all actives have a fitted effect of over 55% in size; further: potency means the concentration at half of the fitted maximal effect
# [4] = biological target: Androgen receptor (Homo sapiens) (UniProt P10275); test: qHTS assay to identify small molecule antagonists of the androgen receptor (AR) signaling pathway (AID 743035; active means well fitted inhibition curve with a large enough effect in the signal ratio in the repeat runs, not every such curve was filed as active; inconclusive means weak or mixed curves, or effect the other way; inactive means no such curve, though single readings can be large or run the other way; the % refers to the signal ratio); details: HEK293 AR-UAS-bla, R1881-stimulated, beta-lactamase FRET, 16 h
# In short: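 Cell line: GeneBLAzer AR-UAS-bla GripTite (HEK293). Stimulus: R1881 added after compound. Exposure: 16 h, 37C, 5% CO2. Readout: LiveBLAzer B/G FRET fluorescence after 2 h at room temperature.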
# [5] = activity change, negative = inhibition: at 58.5 µM (top of the series) unless noted
# On the % scale 0 is the no-effect control and ±100 the full control effect; tags describe the fitted curve by direction and shape or compound fluorescence and quenching.
# Chain of UniProt P10275 (P10275 whole entry, looked up): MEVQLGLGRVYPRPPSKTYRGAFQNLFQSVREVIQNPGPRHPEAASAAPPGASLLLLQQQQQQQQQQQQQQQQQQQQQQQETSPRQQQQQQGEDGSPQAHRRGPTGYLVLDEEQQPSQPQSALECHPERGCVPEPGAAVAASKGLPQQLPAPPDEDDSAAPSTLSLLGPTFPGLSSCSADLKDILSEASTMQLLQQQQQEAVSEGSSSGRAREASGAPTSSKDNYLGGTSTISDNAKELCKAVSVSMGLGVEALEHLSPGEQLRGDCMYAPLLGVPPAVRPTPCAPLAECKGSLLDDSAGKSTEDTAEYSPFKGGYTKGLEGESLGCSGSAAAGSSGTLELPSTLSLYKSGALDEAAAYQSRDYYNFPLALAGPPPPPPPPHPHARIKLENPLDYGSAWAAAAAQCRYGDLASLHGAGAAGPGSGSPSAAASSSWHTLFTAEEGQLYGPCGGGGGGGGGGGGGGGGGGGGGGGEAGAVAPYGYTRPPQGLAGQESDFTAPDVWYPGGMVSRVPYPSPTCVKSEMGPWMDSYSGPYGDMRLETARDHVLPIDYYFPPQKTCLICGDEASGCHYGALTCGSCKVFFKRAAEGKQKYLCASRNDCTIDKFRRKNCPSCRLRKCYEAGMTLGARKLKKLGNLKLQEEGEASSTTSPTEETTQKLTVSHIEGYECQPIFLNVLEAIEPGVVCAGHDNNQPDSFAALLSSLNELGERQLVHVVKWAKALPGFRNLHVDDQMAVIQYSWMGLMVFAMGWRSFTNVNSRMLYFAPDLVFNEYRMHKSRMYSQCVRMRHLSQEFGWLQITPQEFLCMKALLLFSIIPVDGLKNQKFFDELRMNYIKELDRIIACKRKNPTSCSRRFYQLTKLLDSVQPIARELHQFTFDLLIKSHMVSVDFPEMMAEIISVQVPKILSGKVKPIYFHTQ
# Chain of UniProt P04150 (P04150 whole entry, looked up): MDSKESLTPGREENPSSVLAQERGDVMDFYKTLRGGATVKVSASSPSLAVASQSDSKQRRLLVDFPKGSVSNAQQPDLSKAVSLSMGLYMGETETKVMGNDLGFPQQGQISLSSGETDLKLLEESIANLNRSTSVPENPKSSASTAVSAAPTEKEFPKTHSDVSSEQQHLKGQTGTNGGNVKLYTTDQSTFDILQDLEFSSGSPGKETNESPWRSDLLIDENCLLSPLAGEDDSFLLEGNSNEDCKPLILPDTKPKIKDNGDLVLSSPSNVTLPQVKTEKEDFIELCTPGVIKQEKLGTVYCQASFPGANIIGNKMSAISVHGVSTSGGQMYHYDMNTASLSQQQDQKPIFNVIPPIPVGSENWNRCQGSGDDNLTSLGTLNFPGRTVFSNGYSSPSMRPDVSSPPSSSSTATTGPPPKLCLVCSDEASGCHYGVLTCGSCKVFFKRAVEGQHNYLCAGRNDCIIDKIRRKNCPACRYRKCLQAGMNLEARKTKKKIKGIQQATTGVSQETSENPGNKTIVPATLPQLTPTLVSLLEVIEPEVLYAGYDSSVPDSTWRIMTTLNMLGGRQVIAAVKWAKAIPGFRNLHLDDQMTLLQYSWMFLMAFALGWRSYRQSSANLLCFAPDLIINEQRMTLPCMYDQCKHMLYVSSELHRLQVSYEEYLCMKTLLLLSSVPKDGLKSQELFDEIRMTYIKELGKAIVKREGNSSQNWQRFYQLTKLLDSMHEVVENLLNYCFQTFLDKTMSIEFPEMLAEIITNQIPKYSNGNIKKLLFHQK
smiles,measurement,setting,value
COc1ccc(N)c(OC)c1,Potency,[1],"inconclusive: 0.0246 µM [activator, full curve, poor fit]"
same,Potency,[2],inactive
C[n+]1ccn(CCO)c1,"activity change, negative = inhibition",[1],inconclusive: 27% [at 78.9 µM]
same,Potency,[3],inactive
CCCCCCCCCCCCCC(=O)O,Potency,[1],"inconclusive: 54.9 µM [fluorescent, partial curve, poor fit]"
same,Potency,[3],"inconclusive: 19.3 µM [rising, partial curve, poor fit]"
Cn1cnc2c(F)c(Nc3ccc(Br)cc3Cl)c(C(=O)NOCCO)cc21,"activity change, negative = inhibition",[1],inconclusive: -15.9%
same,Potency,[3],inactive
same,Potency,[2],inactive
CCC(C(=O)OCCN(CC)CC)c1ccccc1 (stereo not drawn),Potency,[1],inactive
same,Potency,[3],"inconclusive: 16.8 µM [cytotoxic, partial curve, poor fit]"
same,Potency,[2],"inconclusive: 29.8 µM [cytotoxic, single point]"
same,Potency,[4]; [5],inactive
OCCOCCOCCO,"activity change, negative = inhibition",[1],inconclusive: -10.5%
same,Potency,[3],"inconclusive: 24.3 µM [cytotoxic, partial curve, poor fit]"
same,"activity change, negative = inhibition",[4]; [5],inconclusive: 20%
CN(C)C(=O)Nc1ccc(Cl)c(Cl)c1,Potency,[1],inactive
same,Potency,[3],"inactive and inconclusive: 27.2 µM [cytotoxic, partial curve, poor fit] and active: 54.5 µM"
same,Potency,[2],"inconclusive: 68.6 µM [cytotoxic, single point]"
same,"activity change, negative = inhibition",[4]; [5],inconclusive: -48.9% and inconclusive: -21.7%
same,"activity change, negative = inhibition",[4]; at 58.5 µM (top of the series),inactive: 2.22%
CC(C)C(=O)OCC(C)(C)C(O)C(C)C (stereo not drawn),"activity change, negative = inhibition",[1],inconclusive: -4.53% [at 78.9 µM]
same,Potency,[3],inactive
